From PubChem BioAssay AID1508642 (National Center for Advancing Translational Sciences (NCATS), 2021)
Screen size: about 43,000 compounds; about 200 (0.47%) were called active. About 12% were inconclusive and are not listed. Calls come from the whole dose curve; as a rule, active = well fitted cell-killing curve with a large enough effect; inconclusive = small, poorly fitted or top-dose-only effect, or effect the other way; inactive = flat fitted curve, though single readings scatter. This is one part of the list.

assay: Cell viability qHTS assay in S16 Pmp22-F2sN cells; conditions: S16 Pmp22-F2sN Schwann cells (luciferase reporters placed in the Pmp22 gene) viability, CellTiter-Glo, 24 h; series mostly up to 57.5 µM; activity change, negative = cytotoxicity: at the top concentration; note: nearly all actives have a fitted effect of over 65% in size
Description: Assay Provider: Jim Inglese Ph.D. National Center for Advancing Translational Science, National Institutes of Health, Rockville, MD CMT is a heterogeneous group of neurological disorders that affect approximately 1 in 2,500 people. In particular, the most common form of CMT, CMT1A is genetically linked to the duplication of the PMP22 gene which leads to Schwann cell overexpression, thus manifesting itself as a typical case of dose-sensitive diseases. To identify small molecule compounds that can mediate the expression of PMP22 we developed a phenotypic assay screening strategy by utilizing genome editing techniques to construct Schwann cell lines containing novel reporter technology to monitor the transcriptional or translational regulation of PMP22. For high sensitivity we use a bioluminescent reporter system embedded in the 3' UTR of the PMP22 gene (S16(c9) Pmp22-F2sN) to identify compounds that inhibit gene expression. […] We can further discriminate the effect of all transcriptionally active molecules on PMP22 translation or stability with an assay that incorporates a short NLuc peptide (HiBiT) at the C-terminus of expressed PMP22 (S16(f8) PMP22-HiBiT) allowing alpha complementation and luminescence detection of membrane-associated PMP22 protein. These assays were screened against the NCATS Sytravon Library Collection. Miniaturization of these assays to 1536-well plate format for quantitative high throughput screening (qHTS) yielded rich data sets immediately from the qHTS assay (S16(c9) Pmp22-F2sN), when compared with data from a cell viability assay (Cell TiterGlo) to identify compounds that decreased the output signals through cellular toxicity to streamline the selection process of actives for subsequent characterization using the HiBiT assay (S16(f8) PMP22-HiBiT).
Cell viability assay in S16 Pmp22-F2sN cells PROTOCOL TABLE (format as described by Inglese J, Shamu CE and Guy RK. 2007) SEQUENCE No. (e.g., 1, 2, 3, etc.); […] (e.g., Cells, Incubation, Reagent, etc.); VALUE and DESCRIPTION. 1. Cells. Add 500-1,000 cells in 4 uL in growth media (DMEM High Glucose, No Phenol Red media + 10% heat-inactivated FBS + 1% Pen/Strep supplemented media) per well into Greiner 1536-well white/solid bottom high base, TC-treated plates. 2. Compounds. Library compounds and controls added at 23nL per well, transferred by Pin Tool. 3. Incubation. Incubate plates at 37C, 5% CO2, 95% RH for 24 h. 4. Reagent. Add 3uL CellTiter-Glo per well of Greiner 1536-well plates. 5. Incubation. Incubate plates at room temperature for 15 min., protect from light. 6. Detector. FLuc luminescence measured using CCD-based camera (Viewlux). NOTES (numbers refer to Sequence numbers above; values are from representative experiments) 6. Luminescence Read: Clear filter; Exposure = 1 sec, Gain = High, Speed = Slow, Binning = 2X REFERENCES: 1. Inglese J, Shamu CE and Guy RK, Reporting data from high throughput screening of small molecule libraries, Nature Chemical Biology, 2007, 3(8): 438-441. doi.org/10.1038/nchembio0807-438 2. Yasgar A, Shinn P, Jadhav A, Auld DS, Michael S, Zheng W, Austin CP, Inglese J and Simeonov A, Compound Management for Quantitative High-Throughput Screening. J. Assoc. Lab. Auto., 2008, 13: 79-89. doi: 10.1016/j.jala.2007.12.004
% is set by controls: 0 for no effect and ±100 for the full control effect; potency is the fitted concentration of half-maximal effect.

Compound	activity change, negative = cytotoxicity	Potency
COc1ccc(NC(=O)c2ccco2)cc1NC(=O)c1cc(Br)ccc1Cl	inactive: 5.74%	
CCOc1ccc(C(=O)c2oc3ccccc3c2NC(=O)c2cc(=O)c3ccc(C)cc3o2)cc1	inactive: 0.142%	
Cc1oc2ncnc(N3CCCCC3)c2c1C(=O)N1CCN(c2ccc(Cl)cc2)CC1	inactive: 19.4%	
COc1ccc(S(=O)(=O)N(CC(=O)NCCc2ccccc2)c2ccc(Cl)cc2)cc1	inactive: 19.3%	
CCOC(=O)c1ccccc1NC(=O)CSc1cn(CC(=O)N2CCCCCC2)c2ccccc12	inactive: -2.94%	
CCCCN(CC)CCNC(=O)c1nn(C)c2c1CS(=O)(=O)c1ccccc1-2	inactive: 7.98%	
CCc1ccc(NC(=O)CCCc2nnc3n(C(C)CC)c(=O)c4sccc4n23)cc1 (configuration not stated)	inactive: 4.26%	
COc1ccc(-c2nc3c4ccccc4n(CC(=O)N4CCN(c5ccccc5F)CC4)c(=O)n3n2)cc1	inactive: 11.5%	
COc1ccc(Nc2nc3c(S(=O)(=O)c4ccc(C)cc4)nnn3c3ccsc23)cc1Cl	inactive: -8.59%	
CC(=O)N1CCc2c(sc3c2c(=O)n(Cc2ccccc2)c(=O)n3Cc2ccccc2Cl)C1	inactive: -14.8%	
COc1cc2c(cc1OC)C(COc1ccccc1OC)N(C(=O)c1ccc(S(=O)(=O)N(C)C)cc1)CC2 (configuration not stated)	inactive: 4.05%	
Cc1ccc(Cl)cc1N1CCN(C(=O)COc2cc(=O)n(C)c3ccccc23)CC1	inactive: -2.86%	
COc1cccc(CNC(=O)Cn2c(=O)nc(-c3ccccc3F)c3cc(Cl)ccc32)c1	inactive: -1.17%	
COc1ccc(Nc2oc(/C=C/c3cc(OC)c(OC)c(OC)c3)nc2C#N)cc1	inactive: -3.21%	
CC1CCN(S(=O)(=O)c2ccc3c(c2)N(CC(=O)NC(C)(C)C)C(=O)CS3)CC1	inactive: 0.136%	
COc1cc(-c2nc(-c3ccccc3)c(-c3ccc(Br)cc3)[nH]2)cc(OC)c1O	inactive: -25.3%	
CCCCN(CC)C(=O)CSc1nc2ccccc2c(=O)n1Cc1ccco1	inactive: -18.5%	
COC(=O)c1cc2sc(Cl)cc2n1Cc1nc(-c2ccccc2C)oc1C	inactive: 2.19%	
COc1ccc(NC(=O)C2CCN(c3ccc(Sc4ccc(C)cc4)nn3)CC2)cc1	inactive: 23.7%	
CC1CN(C(=O)N2CCC(C(=O)NCc3cccs3)CC2)c2ccccc2O1 (configuration not stated)	inactive: 6.88%	
CCC1CCCCN1CCCNC(=O)c1c(O)nc2cc(C)ccn2c1=O (configuration not stated)	inactive: 0.85%	
Cc1cc(C)c(Cn2cnc3nc4c(cc3c2=O)CCCC4)c(C)c1	inactive: -0.921%	
O=C(CN1C(=O)c2ccccc2Sc2ncccc21)Nc1cccc(C(F)(F)F)c1	inactive: 0.734%	

Compound	activity change, negative = cytotoxicity	Potency
COc1ccc(Nc2cc(C)c3cc(NC(=O)COc4cccc(C)c4)ccc3n2)cc1	inactive: 12%	
COc1cccc(CNC(=O)C2=C(C)C(=O)OC23CCCCCC3)c1	inactive: -1.18%	
COc1ccc2nc(NC(=O)c3nc(S(=O)(=O)Cc4ccc(C)cc4)ncc3Cl)sc2c1		active: 28.2 µM
Cc1cccc(N2CCN(C(=O)CCNS(=O)(=O)c3ccc4c(c3)CCN4C(=O)C3CC3)CC2)c1C	inactive: -18.1%	
Cc1ccc(-c2nnc(Nc3ccc(O)cc3)c3ccccc23)cc1S(=O)(=O)NC(C)(C)CO	inactive: 0.541%	
CCOc1ccc(S(=O)(=O)N(CC(=O)Nc2ccc(OC)c(Cl)c2)c2ccccc2)cc1	inactive: 0.903%	
Cc1nn2c(C)c(C(=O)NCc3cccc(Br)c3)cnc2c1-c1ccccc1	inactive: -0.948%	
CCOc1ccc(C(=O)NCC(c2ccc3c(c2)OCO3)N2CCN(C)CC2)cc1 (configuration not stated)	inactive: 13.6%	
CCOc1ccc(NC(=O)N2CCC(n3c(C)nc4cccnc43)CC2)cc1	inactive: -0.449%	
Cc1cc(C)cc(NC(=O)C2CCN(c3nnc(-n4c(C)ccc4C)s3)CC2)c1	inactive: 0.163%	
CCOC(=O)c1scc(-c2ccc(C)cc2)c1S(=O)(=O)N1CCN(c2ccccc2)CC1	inactive: -4.28%	
COc1ccc(-n2c(SCC(=O)Nc3ccc4c(c3)OCO4)nc3c([nH]c4ccccc43)c2=O)cc1	inactive: 3.79%	
CC(=O)c1ccc(NS(=O)(=O)c2ccc3[nH]c(=O)[nH]c3c2)cc1	inactive: -4.71%	
COc1ccc(S(=O)(=O)N(CC(=O)Nc2ccc(C)cc2)c2ccc(C)cc2)cc1OC	inactive: 26.2%	
CCc1cccc(NC(=O)CN(C)S(=O)(=O)c2ccc3c(c2)n(C)c(=O)c(=O)n3C)c1	inactive: 1.78%	
CCOc1ccccc1CNC(=O)CCCn1c(=O)c2cccn2c2ccc(F)cc21	inactive: -14.6%	
Cc1ccc(CNC(=O)c2cc(NS(=O)(=O)c3ccc(C)cc3)ccn2)cc1	inactive: 12.3%	
CCOC(=O)c1cc(S(=O)(=O)N(C)c2ccccc2)[nH]n1	inactive: 8.38%	
Cc1ccc(NS(=O)(=O)c2ccc3[nH]c4c(c3c2)CCCCCC4)cc1C	inactive: -9.48%	
Cc1cccc(Nc2nnc(-c3ccc(C)c(S(=O)(=O)N4CCOCC4)c3)c3ccccc23)c1	inactive: -13.5%	
COc1ccc(CCNCc2c(C(=O)O)c(C)n(Cc3cccc(C)c3)c2C)cc1OC	inactive: 3.25%	
Cn1c(Oc2cccc(Cl)c2)nc2c1c(=O)n(Cc1ccccc1Cl)c(=O)n2C	inactive: 0.873%	
COc1ccc(NC(=O)CN(C)S(=O)(=O)c2ccc3nc(C)sc3c2)cc1Cl	inactive: -24.3%	

Compound	activity change, negative = cytotoxicity	Potency
COC(=O)c1sc2cccc(F)c2c1S(=O)(=O)NCc1ccccc1Cl	inactive: -1.55%	
COCCn1c(C)cc(O)c(C(c2ccccc2Cl)N2CCN(c3ccccc3)CC2)c1=O (configuration not stated)	inactive: -2.15%	
COc1ccc(OCC(=O)N2CCN(C(=O)c3cccc(OC)c3OC)CC2)cc1	inactive: 11%	
CCCCN(C(=O)CCn1c(=O)oc2ccccc21)c1ccccc1	inactive: 1.07%	
CCOc1ccc(-c2cc(CCCC(=O)NCCc3ccc(SC)cc3)no2)cc1	inactive: 6.74%	
Cc1cccc(NC(=O)Cn2c(=O)n(CC3CCC(C(=O)NCCc4ccccc4)CC3)c(=O)c3ccccc32)c1C (configuration not stated)	inactive: -1.52%	
Cc1ccc2[nH]c(C)c(CCNC(=O)c3cc4cc(Br)ccc4oc3=O)c2c1	inactive: -4.09%	
O=C(NCC(c1cccnc1)N1CCc2ccccc21)c1cccc(F)c1 (configuration not stated)	inactive: -4.52%	
O=C(NCC(c1ccco1)S(=O)(=O)c1cccs1)c1c(F)cccc1F (configuration not stated)	inactive: -5.24%	
CCN(CC)C(=O)c1sc2c(c1C)c(=O)n(Cc1ccccc1)c(=O)n2Cc1c(C)cc(C)cc1C	inactive: -0.181%	
CCN(CC)C(=O)Cn1c(=O)n(CCCCCC(=O)NCc2ccc(C)cc2)c(=O)c2sccc21	inactive: -36.8%	
CCOc1ccc(-n2c(=O)c3c(C)c(C)sc3n(Cc3ccc(C(C)(C)C)cc3)c2=O)cc1	inactive: -20.3%	
CC(=O)N1CCc2c(sc3c2c(=O)n(-c2cc(Cl)ccc2C)c(=O)n3C)C1	inactive: 7.41%	
CCOc1ccc(C(c2c(O)cc(C)n(CCOC)c2=O)N2CCN(c3ccc(F)cc3)CC2)cc1 (configuration not stated)	inactive: 2.66%	
Cc1cccc2cc(-c3nc(-c4cccs4)no3)c(=O)oc12	inactive: 0.0599%	
Cc1sc2ncn(CC(=O)N3CCN(c4cccc(Cl)c4)CC3)c(=O)c2c1S(=O)(=O)N1CCC(C)CC1	inactive: -23.3%	
CCn1cc(S(=O)(=O)c2cc(C)cc(C)c2)c(=O)c2cc(F)c(N3CCN(c4ccccc4)CC3)cc21	inactive: -0.271%	
COc1cccc(C(=O)N2CCc3cc(OC)c(OC)cc3C2COc2ccc3c(C)cc(=O)oc3c2)c1 (configuration not stated)	inactive: 12.4%	
COC(=O)c1ccc(NC(=O)CN(C)S(=O)(=O)c2ccc3c(c2)CCCC(=O)N3)cc1	inactive: -0.436%	
COc1ccc(Cl)cc1NC(=O)COc1cccc2c(=O)n(C)ccc12	inactive: -0.629%	
CCCCNC(=O)Cn1nc(N2CCN(c3ccccc3OC)CC2)ccc1=O	inactive: 1.02%	
O=C(Cn1c(=O)n(CC2CCCO2)c(=O)c2ccccc21)Nc1ccc(F)cc1F (configuration not stated)	inactive: -1.88%	
COc1cc(C)ccc1OCCSc1nc2ccc(NC(=O)c3ccccc3F)cc2s1	inactive: -1.89%	

Compound	activity change, negative = cytotoxicity	Potency
COC(=O)c1cc(NC(=O)Cn2nc(-c3ccccc3)c3c(c2=O)CCCC3)cc(C(=O)OC)c1	inactive: 1.63%	
N#C/C(=C/c1ccccc1Cl)c1nc(-c2cc3ccccc3oc2=O)cs1	inactive: 4.55%	
CCc1ccc(-c2cc(C)no2)cc1S(=O)(=O)NCc1ccc(OC)cc1	inactive: 1.56%	
Fc1ccc(NCc2ccccc2-c2nnc(-c3ccccc3Cl)o2)cc1Cl	inactive: -3.55%	
CCc1ccc2c(c1)c(=O)c(S(=O)(=O)c1ccccc1)cn2CC(=O)Nc1cc(C)ccc1C	inactive: 5.77%	
COc1cc(NC(=O)CN(C)S(=O)(=O)c2ccc3c(c2)CCCC(=O)N3)cc(OC)c1OC	inactive: 0.934%	
COc1ccc(-c2nc3ccccc3o2)cc1NC(=O)COc1c(C)cc(Cl)cc1Cl	inactive: 9.69%	
Cc1ccc(CCNC(=O)Cn2ncc3c(=O)oc4ccccc4c32)cc1	inactive: 8.51%	
Cc1ccccc1-c1nc(CS(=O)(=O)CC(=O)Nc2c(C)cccc2C)c(C)o1	inactive: 18.2%	
CCc1nnc(SC(CC)C(=O)NCCOC)c2cc3occc3n12 (configuration not stated)	inactive: 2.42%	
CN1CCN(C(=O)c2cnn(-c3ccccc3)c2C2CCN(C(=O)OC(C)(C)C)CC2)CC1	inactive: 2.37%	
Cc1cccc(NC(=O)CSc2nc(C)cc(C)c2C(=O)Nc2ccc(Cl)cc2)c1	inactive: -12.6%	
Cc1ccc(C)c(NC(=O)Cn2cc(S(=O)(=O)N3CCCC3)c(S(=O)(=O)N3CCCC3)c2)c1	inactive: -2.27%	
COc1ccc(Cl)cc1NC(=O)c1cc(=O)c2cc(C)cc(C)c2o1	inactive: 1.5%	
CCc1nn2c(=O)cc(COC(=O)c3cccc(NC(=O)COc4ccccc4F)c3)nc2s1	inactive: -7.79%	
CC(C)(C)OC(=O)N1CCC(c2c(C(=O)N3CCN(c4ccccc4F)CC3)cnn2C(C)(C)C)CC1	inactive: 2.82%	
COC(=O)c1cc2sc(C)cc2n1Cc1nc(-c2cccc(Br)c2)oc1C	inactive: 7.65%	
Cc1cccc(-c2nc3c4ccccc4n(CC(=O)Nc4cccc(F)c4)c(=O)n3n2)c1	inactive: 12.9%	
CCc1ccc2oc(C(=O)N(Cc3cccc(Cl)c3)Cc3ccco3)c(C)c2c1	inactive: 19.3%	
Cc1cc(C)cc(NC(=O)Cn2c(=O)n(CCC(C)C)c(=O)c3cccnc32)c1	inactive: 1.17%	
Cn1c(=O)cc(SCC(=O)NCCc2ccc(Cl)cc2)c2cc(Cl)ccc21	inactive: 20.3%	
COc1cccc(CNC(=O)CCCn2c(=O)c3cccn3c3ccc(F)cc32)c1OC	inactive: -5.06%	
COc1ccc(N2C(=O)CS(=O)(=O)C23C(=O)N(Cc2ccccc2)c2ccccc23)cc1 (configuration not stated)	inactive: -4.46%	
